{"source": "paper PMC12155096", "about": "(International Journal of Molecular Sciences, 2025)", "key": {"[1]": {"target": "Photinus pyralis (firefly) luciferase (Photinus pyralis, UniProt P08659)", "sequence (P08659 whole entry)": "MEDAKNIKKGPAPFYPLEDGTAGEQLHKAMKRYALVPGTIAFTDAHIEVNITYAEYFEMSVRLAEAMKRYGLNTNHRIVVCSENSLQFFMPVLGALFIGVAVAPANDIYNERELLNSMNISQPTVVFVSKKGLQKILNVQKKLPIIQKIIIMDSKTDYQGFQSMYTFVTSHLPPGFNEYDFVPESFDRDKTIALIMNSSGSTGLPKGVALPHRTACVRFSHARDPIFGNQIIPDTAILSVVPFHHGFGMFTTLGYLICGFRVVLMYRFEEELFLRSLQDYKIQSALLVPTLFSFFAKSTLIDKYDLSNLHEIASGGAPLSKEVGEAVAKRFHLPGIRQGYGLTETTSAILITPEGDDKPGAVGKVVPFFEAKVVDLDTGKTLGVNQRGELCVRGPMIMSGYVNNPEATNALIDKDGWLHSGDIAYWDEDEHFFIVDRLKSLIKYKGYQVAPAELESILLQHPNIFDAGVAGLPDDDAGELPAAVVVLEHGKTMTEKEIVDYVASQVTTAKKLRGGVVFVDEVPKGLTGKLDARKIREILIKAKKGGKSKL", "type": "biochemical"}, "human CYP1A2 [2]": {"target": "T1, human CYP1A2 (Homo sapiens, UniProt P05177)", "T1 sequence (P05177 1-516)": "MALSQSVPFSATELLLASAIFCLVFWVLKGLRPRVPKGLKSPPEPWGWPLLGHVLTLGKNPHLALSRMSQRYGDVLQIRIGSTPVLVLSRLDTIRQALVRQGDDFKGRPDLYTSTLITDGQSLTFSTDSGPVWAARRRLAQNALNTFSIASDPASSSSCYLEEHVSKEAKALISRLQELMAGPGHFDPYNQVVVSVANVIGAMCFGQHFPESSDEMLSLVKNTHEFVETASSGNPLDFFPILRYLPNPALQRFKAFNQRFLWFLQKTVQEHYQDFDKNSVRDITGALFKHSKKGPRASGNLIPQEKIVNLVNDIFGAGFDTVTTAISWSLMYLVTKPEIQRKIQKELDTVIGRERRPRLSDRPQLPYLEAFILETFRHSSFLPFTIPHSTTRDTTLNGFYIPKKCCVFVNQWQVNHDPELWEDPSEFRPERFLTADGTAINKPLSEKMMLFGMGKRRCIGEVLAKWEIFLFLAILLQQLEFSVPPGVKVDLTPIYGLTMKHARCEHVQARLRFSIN"}, "human CYP2C9 [3]": {"target": "T2, human CYP2C9 (Homo sapiens, UniProt P11712)", "T2 sequence (P11712 whole entry)": "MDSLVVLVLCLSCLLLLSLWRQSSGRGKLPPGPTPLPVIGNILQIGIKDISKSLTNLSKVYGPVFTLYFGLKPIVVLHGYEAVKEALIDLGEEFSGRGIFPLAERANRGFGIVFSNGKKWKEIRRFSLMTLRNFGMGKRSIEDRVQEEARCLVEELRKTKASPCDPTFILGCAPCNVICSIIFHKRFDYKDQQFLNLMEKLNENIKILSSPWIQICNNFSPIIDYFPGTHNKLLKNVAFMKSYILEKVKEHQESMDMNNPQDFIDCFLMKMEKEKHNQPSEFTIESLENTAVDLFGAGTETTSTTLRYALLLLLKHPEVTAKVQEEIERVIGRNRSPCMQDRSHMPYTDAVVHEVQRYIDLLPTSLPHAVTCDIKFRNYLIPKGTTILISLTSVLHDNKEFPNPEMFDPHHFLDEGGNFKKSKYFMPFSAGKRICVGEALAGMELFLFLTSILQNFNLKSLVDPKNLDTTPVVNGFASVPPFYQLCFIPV", "assay": "biochemical"}, "human CYP2D6 [4]": {"target": "T3, human CYP2D6 (Homo sapiens, UniProt P10635)", "T3 sequence (P10635 whole entry)": "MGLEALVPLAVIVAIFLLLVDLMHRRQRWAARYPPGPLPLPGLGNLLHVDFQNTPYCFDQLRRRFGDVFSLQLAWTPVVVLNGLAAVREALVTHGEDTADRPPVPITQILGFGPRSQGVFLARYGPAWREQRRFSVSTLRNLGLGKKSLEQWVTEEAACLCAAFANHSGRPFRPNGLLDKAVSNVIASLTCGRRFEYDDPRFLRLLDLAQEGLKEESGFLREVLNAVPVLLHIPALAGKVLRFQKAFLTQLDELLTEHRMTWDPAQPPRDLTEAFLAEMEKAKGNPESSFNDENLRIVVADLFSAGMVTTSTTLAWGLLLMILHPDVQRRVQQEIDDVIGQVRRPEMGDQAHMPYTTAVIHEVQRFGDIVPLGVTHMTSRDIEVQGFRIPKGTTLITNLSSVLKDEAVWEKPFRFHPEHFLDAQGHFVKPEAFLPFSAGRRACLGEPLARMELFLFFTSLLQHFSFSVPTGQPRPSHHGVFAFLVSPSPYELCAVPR", "assay": "biochemical", "conditions": "for IC50: CYP2D6 IC50"}, "human CYP1A2 [5]": {"target": "T1, human CYP1A2", "assay": "biochemical"}, "human CYP2C19 [6]": {"target": "T4, human CYP2C19 (Homo sapiens, UniProt P33261)", "T4 sequence (P33261 whole entry)": "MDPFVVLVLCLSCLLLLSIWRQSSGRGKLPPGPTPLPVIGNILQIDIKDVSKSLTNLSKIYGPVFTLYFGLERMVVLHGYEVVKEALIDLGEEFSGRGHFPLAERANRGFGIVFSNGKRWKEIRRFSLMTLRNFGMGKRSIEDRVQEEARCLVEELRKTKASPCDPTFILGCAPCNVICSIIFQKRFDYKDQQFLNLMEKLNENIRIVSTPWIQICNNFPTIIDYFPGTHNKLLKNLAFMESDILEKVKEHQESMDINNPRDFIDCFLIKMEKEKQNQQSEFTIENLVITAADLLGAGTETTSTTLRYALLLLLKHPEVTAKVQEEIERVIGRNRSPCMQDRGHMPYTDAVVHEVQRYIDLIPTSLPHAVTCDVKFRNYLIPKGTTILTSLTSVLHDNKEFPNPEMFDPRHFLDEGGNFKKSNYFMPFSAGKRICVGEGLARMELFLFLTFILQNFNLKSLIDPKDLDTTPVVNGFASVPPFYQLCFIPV", "assay": "biochemical"}, "CYP3A4": {"target": "CYP3A4 (Homo sapiens, UniProt P08684)", "sequence (P08684 whole entry)": "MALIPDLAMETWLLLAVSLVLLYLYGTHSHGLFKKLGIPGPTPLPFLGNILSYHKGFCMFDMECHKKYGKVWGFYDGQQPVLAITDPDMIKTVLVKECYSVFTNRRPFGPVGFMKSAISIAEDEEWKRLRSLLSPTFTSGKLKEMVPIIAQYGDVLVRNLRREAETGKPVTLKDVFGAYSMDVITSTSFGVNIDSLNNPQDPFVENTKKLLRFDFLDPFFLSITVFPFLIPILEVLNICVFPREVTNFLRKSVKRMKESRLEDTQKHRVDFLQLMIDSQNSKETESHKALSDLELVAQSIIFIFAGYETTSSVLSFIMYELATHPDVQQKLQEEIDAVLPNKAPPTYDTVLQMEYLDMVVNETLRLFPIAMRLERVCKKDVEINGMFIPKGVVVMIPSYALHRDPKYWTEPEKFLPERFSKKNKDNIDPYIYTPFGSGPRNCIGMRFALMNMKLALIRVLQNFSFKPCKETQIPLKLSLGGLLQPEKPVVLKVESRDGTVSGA", "assay": "biochemical", "conditions": "CYP3A4 AC50 (half-maximal activity concentration)"}, "human CYP2C9 [7]": {"target": "T2, human CYP2C9", "conditions": "for CYP2C9 Efficacy (in parenthesis): human"}, "human CYP2C19 [8]": {"target": "T4, human CYP2C19", "conditions": "for CYP2C19 Efficacy (in parenthesis): human"}, "human CYP2D6 [9]": {"target": "T3, human CYP2D6"}, "[10]": {"conditions": "CYP2C9 IC50 (half-maximal inhibitory concentration)"}, "[11]": {"conditions": "CYP2C19 IC50 (half-maximal inhibitory concentration)"}}, "note": "Structures can show the parent of a compound that is named as a salt. Where two headings read alike, the source gives them in different places.", "data": [{"smiles": "CCN(CC)C(=O)N[C@H]1C=C2c3cccc4[nH]cc(c34)C[C@H]2N(C)C1", "note": "[(-)-(5S,8R)-Lisuride]", "values": [{"measurement": "Luciferase IC50", "setting": "[1]", "result": "Inactive"}]}, {"smiles": "CCCCCCCCCCCCCCCC[n+]1ccccc1", "note": "[Cetylpyridinium bromide]", "values": [{"measurement": "Luciferase IC50", "setting": "[1]", "result": "Inactive"}]}, {"smiles": "CN1CCC[C@@H]1CCO[C@](C)(c1ccccc1)c1ccc(Cl)cc1", "note": "[Clemastine fumarate]", "values": [{"measurement": "CYP1A2 IC50", "setting": "human CYP1A2 [2]", "result": "Inactive"}, {"measurement": "IC50", "setting": "human CYP2C9 [3]; CYP2C9 IC50", "result": 22.5, "unit": "µM"}, {"measurement": "Luciferase IC50", "setting": "[1]", "result": "Inactive"}, {"measurement": "IC50", "setting": "human CYP2D6 [4]", "result": 3.25, "unit": "µM"}]}, {"smiles": "CCN(CC)CCOC(=O)C1(C2CCCCC2)CCCCC1", "note": "[Dicyclomine]", "values": [{"measurement": "IC50", "setting": "human CYP2C9 [3]; CYP2C9 IC50", "result": 33.2, "unit": "µM"}, {"measurement": "IC50", "setting": "human CYP1A2 [5]; CYP1A2 IC50", "result": 11.1, "unit": "µM"}, {"measurement": "Luciferase IC50", "setting": "[1]", "result": "Inactive"}, {"measurement": "IC50", "setting": "human CYP2D6 [4]", "result": 4.05, "unit": "µM"}, {"measurement": "IC50", "setting": "human CYP2C19 [6]; CYP2C19 IC50", "result": 10.8, "unit": "µM"}]}, {"smiles": "CN(C)CCOC(c1ccccc1)c1ccccc1.Cn1c(=O)c2[nH]c(Cl)nc2n(C)c1=O", "note": "[Dimenhydrinate]", "values": [{"measurement": "Luciferase IC50 (half-maximal inhibitory concentration)", "setting": "[1]", "result": "Inactive"}]}, {"smiles": "CC(C)(C)c1ccc(C(=O)CCCN2CCC(OC(c3ccccc3)c3ccccc3)CC2)cc1", "note": "[Ebastine]", "values": [{"measurement": "AC50", "setting": "CYP3A4", "result": 8.15, "unit": "µM"}, {"measurement": "AC50", "setting": "human CYP2D6 [4]; CYP2D6 AC50 (half-maximal activity concentration)", "result": 17, "unit": "µM"}, {"measurement": "AC50", "setting": "human CYP2C19 [6]; CYP2C19 AC50 (half-maximal activity concentration)", "result": 20.6, "unit": "µM"}]}, {"smiles": "CN(C)CCN(Cc1cccs1)c1ccccn1.CN(C)CCN(Cc1cccs1)c1ccccn1.O=C(O)/C=C/C(=O)O.O=C(O)/C=C/C(=O)O.O=C(O)/C=C/C(=O)O", "note": "[Methapyrilene fumarate]", "values": [{"measurement": "IC50", "setting": "human CYP1A2 [2]", "result": 27.6, "unit": "µM"}]}, {"smiles": "Clc1ccc(CO/N=C(\\Cn2ccnc2)c2ccc(Cl)cc2Cl)c(Cl)c1", "note": "[Oxiconazole nitrate]", "values": [{"measurement": "CYP1A2 Efficacy (in parenthesis)", "setting": "human CYP1A2 [2]; human", "result": "3.82 ± 0.48 (-94 ± 9) %"}, {"measurement": "IC50", "setting": "human CYP2C9 [3]; [10]", "result": 0.46, "unit": "µM"}, {"measurement": "IC50", "setting": "human CYP1A2 [5]; CYP1A2 IC50 (half-maximal inhibitory concentration)", "result": 3.82, "unit": "µM"}, {"measurement": "CYP2C9 Efficacy (in parenthesis)", "setting": "human CYP2C9 [7]", "result": "0.46 ± 0.06 (-94 ± 3) %"}, {"measurement": "CYP2C19 Efficacy (in parenthesis)", "setting": "human CYP2C19 [8]", "result": "0.02 ± 0.01 (-148 ± 6) %"}, {"measurement": "IC50", "setting": "human CYP2C19 [6]; [11]", "result": 0.02, "unit": "µM"}]}, {"smiles": "CC(C)n1nc(-c2cc3cc(O)ccc3[nH]2)c2c(N)ncnc21", "note": "[PP242]", "values": [{"measurement": "IC50", "setting": "human CYP1A2 [2]", "result": 7.45, "unit": "µM"}, {"measurement": "CYP2D6 Efficacy", "setting": "human CYP2D6 [9]", "result": "10.31 ± 17.83 (-9 ± 102) %"}, {"measurement": "IC50", "setting": "human CYP2D6 [9]", "result": 10.3, "unit": "µM"}, {"measurement": "CYP2C9 Efficacy", "setting": "human CYP2C9 [7]", "result": "3.14 ± 0.72 (-109 ± 14) %"}, {"measurement": "IC50", "setting": "human CYP2C9 [7]", "result": 3.14, "unit": "µM"}, {"measurement": "CYP2C19 Efficacy", "setting": "human CYP2C19 [8]", "result": "0.56 ± 0.12 (-126 ± 11) %"}, {"measurement": "IC50", "setting": "human CYP2C19 [8]", "result": 0.56, "unit": "µM"}]}, {"smiles": "Clc1ccc(CSC(Cn2ccnc2)c2ccc(Cl)cc2Cl)cc1", "note": "(stereo not drawn) [Sulconazole nitrate]", "values": [{"measurement": "IC50", "setting": "human CYP2C9 [3]; [10]", "result": 0.47, "unit": "µM"}, {"measurement": "CYP2C9 Efficacy (in parenthesis)", "setting": "human CYP2C9 [7]", "result": "0.47 ± 0.07 (-107 ± 1) %"}, {"measurement": "CYP2C19 Efficacy (in parenthesis)", "setting": "human CYP2C19 [8]", "result": "0.16 ± 0.07 (-121 ± 4) %"}, {"measurement": "IC50", "setting": "human CYP2C19 [6]; [11]", "result": 0.16, "unit": "µM"}]}]}
